# Publication PMC10668032
# This is one part of the list. At the low end of the ranking the order means little.
# Target: SIX1-Q177R homeodomain (UniProt Q15475)
# Experiment: universal protein binding microarray
# Settings: Universal all-10-mer PBM (8x60K, AMADID 030236), 300 nM GST-tagged protein, Alexa Fluor 488 anti-GST; buffer, salt, pH and temperature not stated; high values mean tight binding; most listed sequences are background and not binding sites; double strand, one strand shown
row,Sequence,binding signal [E-score]
1,CGTGCGAG,0.0597
2,ATAACCGA,-0.184
3,GGCAAATA,-0.0796
4,CTGGAATC,0.0456
5,ATAGGACG,-0.118
6,AACTCACG,-0.31
7,AATCACTG,-0.036
8,CGTGATCC,0.195
9,TCAAGGGA,-0.087
10,CCATCGTC,-0.239
11,CAATCTGC,-0.158
12,AGTCTAAA,-0.0748
13,AGGGTAAC,0.176
14,TACTAGCA,-0.0346
15,ATTTCCGA,-0.218
16,TCTGGTAA,0.0759
17,AGAGACAA,-0.251
18,ATGCTCAA,-0.251
19,CAGATAAA,-0.0842
20,GGCTACCC,0.0413
21,CTGTTAGC,-0.201
22,CCAGCGCC,-0.222

row,Sequence,binding signal [E-score]
1,ATTGAACC,0.0239
2,ACAATACC,0.0413
3,ACAGCCCC,-0.0608
4,GGTTAAAC,0.183
5,AGACTCCA,0.0586
6,AGCTGATG,-0.0132
7,ACTCGTGA,-0.0304
8,TATGTGCA,-0.121
9,AGTGTCGG,0.421
10,CAGGTCGC,-0.0369
11,ATAATATC,-0.192
12,AGTCTCAT,-0.0975
13,AGCGGATG,0.00573
14,AAAAGTTG,-0.182
15,AGTTACCC,0.146
16,AGGGATTG,-0.109
17,TGGCGCAA,-0.101
18,ATTGAACG,-0.117
19,TACTAGAA,-0.0104
20,TAAGACAA,-0.0768
21,GCATGAAA,-0.148
22,GGAGCCAC,-0.0346

row,Sequence,binding signal [E-score]
1,CGCGGCAA,-0.079
2,GCTCCTAC,0.0432
3,TGCATCAA,-0.221
4,CCTGTTGA,0.0114
5,CTAGATAG,-0.0228
6,CCAGTTGA,0.0417
7,ACAGGCCT,-0.213
8,CCGATAGA,-0.0393
9,CAACCGAC,0.00271
10,AACAGCCA,-0.0975
11,AATCCCTA,-0.034
12,AAGAAACT,-0.222
13,AGACAGCT,-0.31
14,CCTGTCAA,0.00171
15,GCCTGGAC,0.0343
16,GGTCGGAA,0.17
17,AAAGGGTC,0.136
18,CAATGGCG,0.00487
19,AAGGATGT,-0.119
20,TACATCAA,0.0509
21,CTACCCAA,0.00863
22,CGGTCCAG,-0.0927

row,Sequence,binding signal [E-score]
1,AAGACATT,-0.231
2,CCTTCTAG,-0.094
3,CAGCCCTA,0.03
4,CGATTAGC,-0.192
5,ATGCGCAC,0.0353
6,AAGGTCAT,-0.0714
7,CGTGTAAA,0.435
8,ACCATGTA,-0.0407
9,GGGTACCA,0.129
10,GATTTTGA,-0.0961
11,GCCGACGA,-0.127
12,AATATTGT,-0.244
13,AGCACAGC,-0.118
14,CAAATACA,0.0732
15,CCTCATAC,0.0375
16,CAGCTGCG,-0.165
17,ATCTTTTA,-0.194
18,ATGACCTA,-0.16
19,CAGAAAAC,-0.0387
20,CCATTCCA,0.0775
